Tests used:
[1] = tested on: budgie feces suspension; assay: N-methyl merocyanine coated towel exposed to budgerigar feces suspension; conditions: budgie feces suspension in tap water
Excerpt: Budgerigar feces was collected from a caged pet budgie, and shaken in approximately 10 milliliters of Atlanta city domestic tap water.

[2] = tested on: aged urine (approximately 1x10^5 CFU/milliliters); assay: N-methyl merocyanine coated towel exposed to aged female human urine
[3] = tested on: aged raw chicken juice; assay: Dye spray on aged raw chicken juice pattern and re-colorization with 1 N NaOH; conditions: hot plate surface, 160 mg/10 mL acetonitrile spray

SMILES | Color change of coated towel [1] | Color change of coated towel [2] | Color change on aged raw chicken juice pattern [3]
COc1cc(/C=C/c2cc[n+](C)cc2)ccc1[O-] [N-methyl merocyanine dye] | immediate color change from deep orange to pale yellow | immediate color change from deep orange to pale yellow | 
[O-]c1c(-c2ccccc2)cc(-[n+]2c(-c3ccccc3)cc(-c3ccccc3)cc2-c2ccccc2)cc1-c1ccccc1 [Reichardt's dye, 4-(2,4,6-triphenylpyridinium-1-yl)-2,6-diphenylphenolate] |  |  | color change of the dye in the exact form of the pattern of chicken juice
